# Target: the molecule itself
# Assay: native gel or EMSA; non-denaturing sample preparation and electrophoresis; precast native gel 4%-15%, Tris/glycine running buffer, Coomassie-stained; monomer and dimer bands separated
protein,measurement,value
"E26H mutant Schistosoma japonicum glutathione S-transferase, sjGST(E26H) (enzyme, glutathione S-transferase of Schistosoma japonicum (sjGST), […], with E26H, as expressed from the pGEX-4T-3 plasmid without insert; Standalone GST mutant, no fusion partner; Surmise: the pGEX-4T-3 vector adds a few C-terminal residues (thrombin site and multiple cloning site); also called E26H mutant sjGST; the mutant) not shown",stoichiometry N,2
